# Laboratory results from PubChem BioAssay AID1030 (National Center for Advancing Translational Sciences (NCATS), 2008).
# The whole screen tested about 220,000 compounds, of which about 16,000 (7.3%) were called active. The shares of active, inactive and inconclusive entries below differ from those in the screen. The call rests on the fitted dose curve; in most records, active means well fitted inhibition curve with a large enough effect (not every such curve was filed as active); inconclusive means small, poorly fitted or top-dose-only effect, or another doubt; inactive means no such curve, though single readings can be large or run the other way. Potencies of inconclusive entries are left out as doubtful fits.
# Target: Aldehyde dehydrogenase 1A1 (Homo sapiens) (UniProt P00352)
# Experiment: qHTS Assay for Inhibitors of Aldehyde Dehydrogenase 1 (ALDH1A1);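 on activity, negative = inhibition: plate controls were no enzyme wells and a reference inhibitor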
# Details: Purified ALDH1A1, NADH fluorescence, propionaldehyde substrate; series mostly up to 75.3 µM; activity, negative = inhibition: at the top concentration
# Potency means the concentration at half of the fitted maximal effect; tags describe the fitted curve by direction and shape.
# UniProt P00352, sequence (P00352 whole entry, looked up): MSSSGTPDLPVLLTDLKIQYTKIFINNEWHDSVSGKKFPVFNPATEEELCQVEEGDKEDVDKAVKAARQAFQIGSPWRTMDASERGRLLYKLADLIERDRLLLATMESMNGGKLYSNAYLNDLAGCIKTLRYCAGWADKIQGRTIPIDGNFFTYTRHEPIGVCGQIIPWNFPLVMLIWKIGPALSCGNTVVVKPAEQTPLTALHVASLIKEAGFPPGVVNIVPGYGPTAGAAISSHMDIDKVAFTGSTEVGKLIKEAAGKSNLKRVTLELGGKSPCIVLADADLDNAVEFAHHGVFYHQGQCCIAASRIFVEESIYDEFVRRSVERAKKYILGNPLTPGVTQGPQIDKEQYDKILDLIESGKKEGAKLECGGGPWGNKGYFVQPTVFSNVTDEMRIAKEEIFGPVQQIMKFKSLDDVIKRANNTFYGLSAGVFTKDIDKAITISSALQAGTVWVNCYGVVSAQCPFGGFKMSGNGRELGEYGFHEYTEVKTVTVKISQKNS
SMILES,Potency,"activity, negative = inhibition"
O=C(Nc1nc(-c2ccccc2)cs1)c1ccc2c(=O)n3c(nc2c1)CCCCC3,active: 28.2 µM,–
O=C1C(c2ccccn2)=[N+]([O-])c2ccccc21,"inconclusive [inhibitor, partial curve]",–
COc1ccc(S(=O)(=O)NCC2CCCN(C(=O)CC3CCCC3)C2)cc1 (configuration not stated),active: 0.794 µM,–
O=C1OCCN1C(=O)[C@H]1[C@H](c2ccc([N+](=O)[O-])cc2)C(c2ccc(F)cc2)=NN1c1ccc(Br)cc1,–,inactive: 6.64% [at 50.4 µM]
CCCOc1ccc2c(C)c(CC(=O)OC)c(=O)oc2c1,"inconclusive [inhibitor, partial curve]",–
CCOC(=O)CC(=O)CSc1nc(-c2ccccc2)cc(-c2ccccc2)c1C#N,"inconclusive [inhibitor, partial curve]",–
Fc1ccccc1N1CCN(Cc2nc(-c3ccc(Cl)cc3Cl)no2)CC1,"inconclusive [inhibitor, single point]",–
Cc1ccc(-n2ncc3c(SCc4ccccn4)ncnc32)c(C)c1,"inconclusive [inhibitor, partial curve]",–
Fc1cccc(/C=C2\CCCC3=C2NC(=S)NC3c2cccc(F)c2)c1 (configuration not stated),active: 0.794 µM,–
COc1ccc2c(c1)c(=O)c(C(=O)O)c(-c1ccc3c(c1)OCO3)n2C,"inconclusive [inhibitor, single point]",–
Cc1ccc(-n2ncc3c(NCc4ccco4)ncnc32)cc1C,"inconclusive [inhibitor, single point]",–
O=C1CCC(C(=O)N(c2ccccc2)C2(C(=O)NC3CCCCC3)CCCCC2)N1 (configuration not stated),active: 7.08 µM,–
COc1cc(/C=C2/C(=O)NN(c3cccc(F)c3)C2=O)ccc1OC(=O)c1ccco1,active: 22.4 µM,–
Cc1ccc(CSC2=Nc3sccc3C3=NC(=O)CN23)cc1,"inconclusive [inhibitor, single point]",–
COc1cc(-c2nc(-c3ccc4c(c3)-c3ccccc3S4(=O)=O)c(-c3ccccc3)[nH]2)cc(OC)c1O,–,inactive: -4.29%
CC(C)(C)n1cnc2cc(NCc3cccs3)ccc21,"inconclusive [inhibitor, single point]",–
O=C(/C=C/c1ccc(Cl)cc1Cl)NCc1ccco1,–,inactive: -14.2%
CC1Cn2c(nnc2-c2cccc(N)c2)S1 (configuration not stated),"inconclusive [inhibitor, partial curve]",–
Cn1ccc(-c2ccccc2)c(C#N)c1=O,"inconclusive [inhibitor, single point]",–
CCCn1c(C)cc(C(=O)COc2ccc(-c3nnco3)cc2)c1C,–,inactive: 5.63%
C1CCC(n2nnnc2CN2CCN(C3CCCC3)CC2)CC1,–,inactive: -5.13%
COc1ccc2[nH]c(=S)[nH]c2c1,–,inactive: -5.7%
O=C(NCc1ccccn1)c1c(O)c2c([nH]c1=O)CCCC2,"inconclusive [inhibitor, full curve]",–
CSc1nsc(SCC(=O)N2CCc3ccccc32)n1,"inconclusive [inhibitor, single point]",–

SMILES,Potency,"activity, negative = inhibition"
COc1ccc(NC(=S)N(CCc2c(C)[nH]c3ccccc23)Cc2ccco2)cc1,"inconclusive [inhibitor, single point]",–
Cc1ccc(S(=O)(=O)Nc2nc(C)c(NC(=O)OCCCl)s2)cc1,"inconclusive [inhibitor, single point]",–
CCOC(=O)c1nc(-c2ccccc2)oc1N1CCOCC1,"inconclusive [inhibitor, partial curve]",–
O=C(N/N=C/c1ccc(N2CCOCC2)cc1)c1ccccc1OCCOc1ccccc1,"inconclusive [inhibitor, single point]",–
CCOc1ccc(C(OC(=O)c2ccco2)C(=O)NCc2ccc(C)cc2)cc1 (configuration not stated),–,inactive: 7.3%
COc1cc(NC(=O)C2CCCCC2)c2ncccc2c1,"inconclusive [inhibitor, single point]",–
CCn1cc(Br)c(C(=O)Nc2cccc(SC)c2)n1,"inconclusive [inhibitor, single point]",–
COc1cc(C=O)ccc1OS(=O)(=O)c1ccccc1[N+](=O)[O-],active: 8.91 µM,–
O=C1CC(Cc2ccccc2)C(=O)N1Cc1ccco1 (configuration not stated),active: 2.82 µM,–
CC(NC(=S)Nc1ccc(S(=O)(=O)N2CCOCC2)cc1)C1CC2CCC1C2 (configuration not stated),active: 20 µM,–
CN(CC(=O)O)S(=O)(=O)c1cc(Cl)ccc1Cl,"inconclusive [inhibitor, single point]",–
O=C(CSc1nnc(Nc2ccccc2)s1)Nc1cccc(S(=O)(=O)N2CCCCC2)c1,–,inactive: -5.97%
O=C1/C(=C/c2cccc([N+](=O)[O-])c2)CCc2ccccc21,"inconclusive [inhibitor, single point]",–
O=[N+]([O-])c1ccccc1CN1CCN(Cc2c[nH]c3ccccc23)CC1,"inconclusive [inhibitor, single point]",–
CC1(C)S[C@@H]2[C@H](NC(=O)C(N)c3ccccc3)C(=O)N2[C@H]1C(=O)O (some centres not stated),–,inactive: 6.5% [at 20.9 µM]
COC(=O)CNc1n[nH]c(=S)[nH]c1=O,–,inactive: 4.12%
Cn1c(C(C#N)C2=C(Cl)C(=O)N(c3ccccc3)C2=O)nc2ccccc21 (configuration not stated),"inconclusive [inhibitor, single point]",–
Cn1c(=O)c2c(nc(N/N=C/c3ccc(OC(=O)c4ccco4)cc3)n2Cc2ccc(F)cc2)n(C)c1=O,"inconclusive [inhibitor, single point]",–
O=C(Nc1cccs1)Nc1c(F)c(F)cc(F)c1F,–,inactive: 1.42%
C#CCn1c(=NC(=O)c2cc(-c3cccs3)nc3ccccc23)sc2cc(S(N)(=O)=O)ccc21,"inconclusive [inhibitor, single point]",–
O=C(c1ccc(CN2CCc3ccccc3C2)cc1)N1CCCCC1,"inconclusive [inhibitor, single point]",–
CCN(CC)C(=O)CSc1nnc(-c2cc(OC)cc(OC)c2)o1,"inconclusive [inhibitor, partial curve, poor fit]",–
CC1CC1C(=O)OCC(=O)Nc1ccc(N=Nc2ccccc2)cc1 (configuration not stated),"inconclusive [inhibitor, single point]",–
